In the supplement of paper PMC10126150:
Values marked as one replicate rest on one cluster of the flow cell; about a third of the high ones do not repeat.

Test system: ATP
Assay: switch fluorescence ratio, 500 uM ATP over buffer (Cy3 cluster intensity, sum of 5 cycles each) (fold (ratio)); higher = stronger signal-on switching upon ATP binding; sequences stand for … in TCGTCGGCAGCGTCAGATGTGTATAAGAGACAGTTTTTTTTTTTTTTTTTTTTTTTTT…TC
Conditions: aptamer strand: ATP DNA aptamer (quencher-CACCTGGGGGAGTATTGCGGAGGAAGG + anchor), 100 nM annealed; ATP concentration: 500 uM; one replicate
In short: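 For every switch-domain sequence, the fluorescence ratio is the mean of per-cluster values, each being summed target-cycle Cy3 intensity over summed buffer-cycle Cy3 intensity. Clusters outside 100-1000 RFU were excluded. On a modified Illumina MiSeq flow-cell, the Cy3-labelled switching-strand clusters were annealed to 100 nM quencher-labelled ATP aptamer, imaged in selection buffer and then after 15 min with 500 uM ATP at 22 °C. Five such cycles were run, with NaOH stripping and re-annealing between them.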
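Further: ATP exposure 15 min at 22 °C before imaging.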

Sequence	switch fluorescence ratio
CAAGTTGGGC	0.993
TAAGCTCATG	0.993
AAGGAGTTCT	1.02
GCCGGTCTCT	0.977
TACGTGGACG	1.03
ATTGCCCAGA	0.995
ATCGTATAGG	0.966
GGGCAGACGG	0.969
GGCGAAAAAG	0.982
AAATTCGAA	1.05
TAGGTTAGAT	1.03
CGTGTTTCAC	1.04
AGGGTTATCT	1
AACCTGGGCG	1.06
AATCATTTGG	0.972
CCACTCTTGA	1
TGAGTTGGTG	1.01
ATAACGTCGT	1.03
CCCGTAGTCT	1.07
TTTCTCCGGG	1.08
GAAAGATGCT	0.961
CGGCACCGGA	1.06
GACCTGCGGT	1
TTTTAAACTA	0.948
TGACGCTAAG	1.06
TTCCATTGGA	1.05

Sequence	switch fluorescence ratio
CTATGGACAC	1.02
AAGGAATGGG	0.955
CTACTATTAA	1.02
GCTGAAGTGG	0.999
TAGAGGGGT	0.966
ACCGCGGTCA	1.02
AGCTTACTG	1.06
GCCATCGGCG	0.933
TGTTAGCTGA	0.975
GATTCAATGG	1.04
GTCCGAGGAA	1.05
TGATTCCGG	0.975
TACTGGTTGT	1.04
TATGTCAAAC	1.06
TTGCACATCG	1.04
GATCTTAGTC	1.01
CTATAACCTC	1.04
TGATGGGAA	1.02
TATCGGTCTG	1.07
GCGTGTCCAG	0.983
AATAATTCCT	1
ATTCCACGGG	1.2
TCACGAAACA	1.32
CATTTGATGC	0.972
CTTCAACTAC	1.4
GAGGGCATGC	1.01

Sequence	switch fluorescence ratio
TTCGCTAAGC	1.07
AAGAGGCTCA	1.02
ATTGAGCGT	0.978
GAAGACCACC	1.2
GTGGTAAAC	0.981
AAACCATTT	0.953
CCTTGGGGTC	1.01
AAACGGCGGG	0.971
GGCCCCGAAG	1.34
CACTGGCCCG	1.05
GTGCAGAATT	0.99
CATATGGAA	0.987
ATGTCATCTG	1.03
CAGACAGGCT	0.964
GGTCACGGAC	1.03
ATCATCTTCC	2.33
ATTGGATCGC	1.04
AGAGCTTCGA	0.967
CAGATGATCT	1.01
AGTAATCTA	1.02
TCTACACCTT	1.25
TAAAGTGT	0.976
GTAGTATACG	0.918
TAGGTAGACG	0.94
GTACTGCCAG	1.01
GATCTTCTC	1.01

Sequence	switch fluorescence ratio
GGTACATCCG	1.03
AACCCATAAC	1.04
TTTATGCGTT	1.09
GCGTGGGAAG	1.01
TCTAAACAGC	1.02
CCTTATTTT	1
GTCTTAAGGG	0.963
GATATCGAGC	0.98
GTGGAAGGTG	1.38
TGGCATTTT	1.04
TTTGCAGGCG	1.07
TAATGCGTGC	0.995
AACCTAATGG	0.996
ATCATTTGTA	0.995
CTTTCGCCCC	1.45
GCTACCGCGT	1.08
AAACTTAGTT	0.989
AATTGCTCCC	1.25
CTGAAGTGAA	1.18
TGTCAGCGGC	1.04
GTGGGGTCTA	1.04
TCAAAAAAC	0.991
ACGTTTATTT	1.05
CAAGAGTGTT	0.975
ATAACAATGG	1.05
TCGCTAGACG	1.09

Sequence	switch fluorescence ratio
CCTTTTTGAC	1.01
ATGTGCACTT	1.01
TGTAGTATGC	1.02
TCGAGATTGA	0.945
TTGCCTCCAG	1.12
AACAGTGGAG	1.01
GGGGCAGGC	0.834
ATACCTATTC	1.05
CGGCGTATTG	0.979
AGGATAATCG	0.937
ACAGTTACGA	1.14
GACGCAGCTT	1.21
GCATTGCGG	0.992
CGATTGGTCA	0.978
AGTACGTCTT	0.963
GGAGTGTAGT	0.979
TGATCATCTG	1.01
TTGATTATCT	1.03
GTTGGCGCAG	1
TTCAAGGAAC	0.992
GGTGAATGTT	1
ATTACAGCTT	0.978
GAGGGTTCCT	0.978
GCCGAGAACG	1.06
CGCATTCATA	1.14
CATCAACGCA	1.54

Sequence	switch fluorescence ratio
CCCGTAAAGC	3.69
TCAGTGAAAG	0.99
CTTAGGCAGC	1.05
CAGCCATGAA	1.03
ATCGTGTAGA	0.989
GAGATGAGGG	0.984
AATATTCGGT	1
ATAACCTATT	1.02
TATAAGCGGC	0.998
AACTTTTTT	1.03
CAGGGAGTGT	1.03
GCCCAAAGAG	1.02
GACAGACTCC	1.46
AAACGGGCGA	0.983
GATCCAGGTG	5.81
TCCGTTTTAT	1.01
CATCCTAGCA	1.97
CGGAAGCCGC	0.939
AGTCATTCG	1.03
ATCCTGCTCG	1.02
TTTTCTTATA	0.999
TATTATGTTT	0.972
TATGCTGGA	1.08
ACTGGGGTG	1.1
TTCTCTTTCG	0.993
TATATCGCCG	0.928

Sequence	switch fluorescence ratio
CATGTGGGCG	0.95
TGAGCATGAG	1.06
ACTTAGATTA	1.06
ACTGCTTCCG	1.2
CGCGGAACTC	3.04
ATTGGACGAG	1
TATCCTGTT	1
CGGGAAGGAA	1.04
ACCTGGGCA	1.07
CGGTGAGAA	0.959
ATGCCACTTT	0.968
CGAGGTTTA	0.977
TTCAACCACT	1.17
AGGTAAATAG	1.02
AGAGCTACCT	1.1
TCGATTATGG	0.98
CTCGATCACA	1.01
TGGGCACATG	1.02
TAGAGGTCGC	1.03
CGCTCAACTT	1.05
AGCAGTGACC	1.15
AACATTCTGC	1.01
TACTAGTACT	1.11
CTCTCCTTGC	1.41
CCAGGGTGAG	1.26
AATTCGATTC	0.977

Sequence	switch fluorescence ratio
AGGGGGCCAC	1.04
AATCTGACAG	1
ATTTCATCTA	0.96
CGACTTGTCG	0.967
AGGTTTGGT	0.965
GTCCCGTCAG	1.05
GAGTGAGAG	1.04
CTCATAATAG	1.08
GAAACCTCCA	1.51
TCCAGTGTTC	1
ATTCTTATGC	1.05
GTAGCAAGA	1.66
TTTCATGTTG	1.01
CTCTATGGTG	1.1
AAACTTACTA	1.1
TGATGAACTA	1.01
ACTCGAGCGT	1.12
ACACCCACCT	1.5
TTCTGCCCAG	1.33
